In PubChem BioAssay AID2675 (National Center for Advancing Translational Sciences (NCATS), 2010):
In all, about 280,000 compounds went through this assay and about 100 (0.036%) were called active. Inconclusive means that the source gave no clear call. Such entries were picked first, then a sample of the others. Calls come from the whole dose curve; as a rule, active = well fitted inhibition curve with a large enough effect in the signal ratio, with a control signal flat (not every such curve was filed as active); inconclusive = small, poorly fitted or top-dose-only effect, or effect the other way, or a change in a side signal; inactive = no such curve, though single readings can be large or run the other way; the % refers to the signal ratio. A potency beside an inconclusive call is a rough fit, not a confirmed value. A note “side channel” means that the fit belongs to a control or component signal, not to the main read-out. Starred links: 1 amine or outer side, 2 acyl side, 3 side chain; linkers in the order of their positions; H or OH if unused. Positions of bridges follow the written chain, without caps; N, C: chain ends. Non-standard residues stand in square brackets, D forms with d. Residues, ends and D or L forms follow the SMILES beside them. ξ: configuration not given here. hSer(Ph(2-I,4-NO2,6-CO)) = O=C([C@H](CCOc1c(I)cc([N+](=O)[O-])cc1C(=O)[*:3])N[*:1])[*:2]; ξD = NC(CC(=O)O)C(=O)O

Target: Muscleblind-like protein 1 (Homo sapiens) (UniProt Q9NR56)
Experiment: qHTS Assay for Inhibitors of MBNL1-poly(CUG) RNA binding
Details: TR-FRET MBNL1-His/biotin-(CUG)12 binding, 665/545 ratio; series mostly up to 57.5 µM
How it was run: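 Inhibition of protein-RNA binding appears as loss of TR-FRET between terbium anti-His antibody on MBNL1-His and streptavidin-XL665 on biotin-(CUG)12. Activity is normalized to buffer-only and uninhibited-complex controls.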
Potency is the fitted concentration of half-maximal effect; tags give direction and shape of the fitted curve or compound fluorescence and quenching.

UniProt Q9NR56, sequence (Q9NR56 whole entry, looked up): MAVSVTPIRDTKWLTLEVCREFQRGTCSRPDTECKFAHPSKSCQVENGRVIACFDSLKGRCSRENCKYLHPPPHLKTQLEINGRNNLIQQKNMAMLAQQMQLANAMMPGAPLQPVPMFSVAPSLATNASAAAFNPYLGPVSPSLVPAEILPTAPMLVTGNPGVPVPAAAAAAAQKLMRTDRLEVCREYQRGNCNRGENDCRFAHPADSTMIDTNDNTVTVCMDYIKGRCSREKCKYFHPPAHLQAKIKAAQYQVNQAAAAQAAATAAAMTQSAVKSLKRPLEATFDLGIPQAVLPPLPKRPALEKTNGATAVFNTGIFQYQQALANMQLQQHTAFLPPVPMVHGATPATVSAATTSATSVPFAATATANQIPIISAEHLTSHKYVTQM

SMILES | Potency
Cc1cc(-c2ccccc2)nc(SCC(=O)N2CCCC2)n1 | inactive
Cc1ccc(C(=O)N/C(=C\c2ccc(-c3cccc([N+](=O)[O-])c3)o2)C(=O)NCCCN2CCOCC2)cc1 | inconclusive: 7.94 µM [quencher, side channel, partial curve]
COCCCn1c(=S)[nH]c2ccc(N3CCOCC3)cc2c1=O | inactive
NC(=O)C(CC(=O)O)NC(=O)[C@@H]1CCOc2c(I)cc([N+](=O)[O-])cc2C(=O)N[C@@H](CCC(=O)O)C(=O)N[C@@H](CO)C(=O)N1 (stereo partly drawn) (ES[hSer(Ph(2-I,4-NO2,6-CO))][ξD]-NH2; lactam N-3) | inconclusive: 28.2 µM [quencher, side channel, single point]
COc1ccc(NC(=O)Nc2ccc3nsnc3c2)cc1 | inconclusive: 15.8 µM [quencher, side channel, partial curve]
O=C(CSc1n[nH]c(-c2cccnc2)n1)Nc1ccccc1 | inconclusive: 0.158 µM [quencher, side channel, full curve, poor fit]
CCS(=O)(=O)N1CCN(S(=O)(=O)c2ccc(Cl)s2)CC1 | inconclusive: 15.8 µM [quencher, side channel, partial curve]
Nc1nccc(-c2ccc(-n3cnc4ccccc43)cc2)n1 | inactive
Cc1cccc(CC(=O)N2CCN=C2SCc2ccc([N+](=O)[O-])cc2)c1 | inconclusive: 8.91 µM [quencher, side channel, full curve, poor fit]
CCOC(=O)c1cccc(NC(=O)COc2ccc([N+](=O)[O-])cc2)c1 | inconclusive: 15.8 µM [quencher, side channel, partial curve]
CCNC(=O)O/N=C1\CCCCC1c1ccc([N+](=O)[O-])cc1[N+](=O)[O-] (stereo not drawn) | inconclusive: 15.8 µM [quencher, side channel, partial curve]
CC1(C)Cc2c(sc(NC(=O)c3ccc(C(=O)c4ccccc4)cc3)c2C#N)C(C)(C)N1 | inactive
NC(=O)c1cc2ccccc2o/c1=N\NC(=O)c1ccncc1 | inconclusive: 6.31 µM [quencher, side channel, partial curve]
C=CCc1ccc(OCC(O)CN2CCN(Cc3ccc(Cl)cc3)CC2)c(OC)c1 (stereo not drawn) | inactive
COc1nn(-c2ccccc2)c(=O)c(Cl)c1Cl | inconclusive: 15.8 µM [quencher, side channel, partial curve]
Cc1cc(=O)[nH]c(SCC(=O)c2ccc(O)c(O)c2)n1 | inactive
O=C(CN1C(=O)S/C(=C\c2ccccc2)C1=O)NC1CCS(=O)(=O)C1 (stereo not drawn) | inconclusive: 20 µM [quencher, side channel, partial curve]
CN=C(c1ccco1)n1c(=S)nc(-c2ccco2)n(C)c1=S | inactive
COc1ccc(O)c(C(=O)c2coc(=N)c(C(=O)Nc3ccc(SC(F)F)cc3)c2)c1 | inconclusive: 12.6 µM [quencher, side channel, partial curve]

SMILES | Potency
O=C(Nc1ccccc1C(=O)NCCCN1CCOCC1)c1cccc([N+](=O)[O-])c1 | inconclusive: 15.8 µM [quencher, side channel, partial curve]
COc1ccc2nc(NC(=O)C3CCCN(S(=O)(=O)c4cccc5nsnc45)C3)sc2c1 (stereo not drawn) | inconclusive: 39.8 µM [fluorescent, side channel, single point]
O=C(NCCNc1ccc([N+](=O)[O-])cc1C(F)(F)F)c1cccc(F)c1 | inconclusive: 3.16 µM [quencher, side channel, single point]
COc1cc([N+](=O)[O-])c(N2CCOCC2)c([N+](=O)[O-])c1OC | inconclusive: 11.2 µM [quencher, side channel, partial curve]
COc1cc([N+](=O)[O-])ccc1NC(=S)N1CCN(c2ccccn2)CC1 | inconclusive: 14.1 µM [quencher, side channel, partial curve]
CO/N=C/c1ccc(N2CCCC2)c([N+](=O)[O-])c1 | inconclusive: 11.2 µM [quencher, side channel, partial curve]
Cc1cc(C)c2[nH]c(=O)c(=O)[nH]c2c1 | inconclusive: 31.6 µM [quencher, side channel, single point]
CCOC(=O)N1CCN(C(=O)/C(=C\c2cccs2)NC(=O)c2cccs2)CC1 | inconclusive: 20 µM [quencher, single point]
O=C1CSC(c2cccc([N+](=O)[O-])c2)N1c1ccccc1 (stereo not drawn) | inconclusive: 12.6 µM [quencher, side channel, partial curve]
Cc1ccc(Nc2c([N+](=O)[O-])c(=O)n(C)c3ccccc23)cc1C | inconclusive: 0.891 µM [quencher, side channel, full curve, poor fit]
CCN(CC(=O)Nc1cccc(F)c1)CC(=O)Nc1ccccc1OC | inactive
COc1cc(OC)cc(C(=O)O/N=C(\N)c2ccccn2)c1 | inactive
CCn1c(=O)c(C(=O)Nc2ccccc2)c(O)c2ccccc21 | inactive
CC(C)c1cccc(C(C)C)c1NC(=O)COC(=O)c1ccc2c(c1)S(=O)(=O)c1ccccc1C2=O | inconclusive: 3.98 µM [quencher, side channel, full curve]
O=[N+]([O-])c1ccc(Nc2ccc(Cl)cc2)nc1 | inactive
O=C1Nc2cc(C(=O)NCCCN3CCOCC3)ccc2S/C1=C/c1ccccc1F | inconclusive: 17.8 µM [quencher, side channel, partial curve]
COCCn1c(SCC(=O)N2CCCCC2)nc2ccccc2c1=O | inactive
CCCCOC(=O)C1=C(C)NC(=O)NC1c1ccc([N+](=O)[O-])s1 (stereo not drawn) | inconclusive: 5.01 µM [quencher, side channel, full curve]
COc1cccc(-c2nnc(NC(=O)C(C)C)o2)c1 | inconclusive: 39.8 µM [quencher, side channel, single point]
